Reference: article PMC4336329 (PLoS ONE, 2015)
The whole screen tested about 310,000 compounds, of which about 14,000 (4.5%) showed an effect of 50% or more. The effect is printed as a negative number. Some of the results follow.

target: human ether-à-go-go-related gene (hERG) potassium channel (human, UniProt Q12809); assay: primary screen, population patch clamp on CHO cells stably expressing hERG
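Also: peak tail current of the secondary pulse compared with the same well before compound.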

Chain of human ether-à-go-go-related gene (hERG) potassium channel (Q12809 whole entry, looked up): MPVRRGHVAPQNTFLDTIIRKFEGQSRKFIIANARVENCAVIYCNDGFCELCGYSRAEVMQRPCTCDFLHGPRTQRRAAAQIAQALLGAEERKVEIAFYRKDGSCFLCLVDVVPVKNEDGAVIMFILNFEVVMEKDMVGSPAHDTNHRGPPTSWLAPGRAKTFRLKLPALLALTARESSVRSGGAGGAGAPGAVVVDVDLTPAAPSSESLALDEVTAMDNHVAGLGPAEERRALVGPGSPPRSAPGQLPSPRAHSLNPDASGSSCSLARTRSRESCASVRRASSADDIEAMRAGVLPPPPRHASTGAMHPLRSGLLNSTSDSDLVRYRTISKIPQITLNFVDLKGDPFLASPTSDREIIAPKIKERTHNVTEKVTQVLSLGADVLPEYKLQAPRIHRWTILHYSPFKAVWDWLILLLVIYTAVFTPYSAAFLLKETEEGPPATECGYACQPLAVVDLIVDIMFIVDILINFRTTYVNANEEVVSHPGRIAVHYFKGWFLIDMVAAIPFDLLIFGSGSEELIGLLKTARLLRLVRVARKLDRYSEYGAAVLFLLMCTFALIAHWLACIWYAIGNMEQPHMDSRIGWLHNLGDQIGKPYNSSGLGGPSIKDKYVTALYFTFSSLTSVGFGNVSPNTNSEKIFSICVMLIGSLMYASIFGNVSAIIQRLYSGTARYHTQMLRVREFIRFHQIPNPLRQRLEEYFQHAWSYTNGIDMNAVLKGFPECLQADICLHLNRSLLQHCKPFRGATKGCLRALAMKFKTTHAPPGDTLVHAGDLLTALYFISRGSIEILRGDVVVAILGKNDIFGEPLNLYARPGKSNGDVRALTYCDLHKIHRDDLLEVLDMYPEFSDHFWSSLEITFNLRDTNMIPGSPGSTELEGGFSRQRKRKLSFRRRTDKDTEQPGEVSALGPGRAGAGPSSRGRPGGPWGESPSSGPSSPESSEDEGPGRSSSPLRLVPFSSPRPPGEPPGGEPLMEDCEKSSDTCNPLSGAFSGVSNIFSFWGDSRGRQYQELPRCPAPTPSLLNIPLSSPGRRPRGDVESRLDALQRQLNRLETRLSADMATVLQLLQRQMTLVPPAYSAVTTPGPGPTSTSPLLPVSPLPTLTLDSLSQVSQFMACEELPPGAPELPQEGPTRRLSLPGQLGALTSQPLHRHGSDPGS

SMILES	hERG current change (%, negative = inhibition) at 10uM [%]
C[C@H](NC(=O)c1nc[nH]c1C(=O)N[C@@H](C)c1ccccc1)C(=O)OC(C)(C)C	-1.83
O=C(O)c1cc(S(=O)(=O)N2CCN(c3ccccn3)CC2)ccc1Cl	19.6
Cc1cc(NC(=O)CCCS(=O)(=O)c2nc(-c3cccs3)cc(C(F)(F)F)n2)no1	-1.15
O=C(Nc1ccc([N+](=O)[O-])cc1)c1nc[nH]c1C(=O)NC1CCCCC1	16.2
CC1Oc2ccccc2C=C1/C=C1/SC(N2CCOCC2)=NC1=O (stereo not drawn)	-41.8
CCOC(=O)C1CCCN(C2CCN(Cc3nc(-c4ccccc4)no3)CC2)C1 (stereo not drawn)	-56.5
Cc1cc(-c2nnc(SCC(=O)NC3CC3)n2C(C)C)cs1	-23
COc1ccccc1CCC(=O)Nc1ccc(S(=O)(=O)Nc2cc(C)nc(C)n2)cc1	12
CC(C)(C)c1ccc(C(=O)N2CCC(=O)N(C(COCc3ccccc3)Cc3ccccc3)CC2)cc1 (stereo not drawn)	-6.83
COc1ccc(C2Nc3ccccc3NC3=C2C(=O)CC(C)(C)C3)c(OC)c1OC (stereo not drawn)	-46.8
CCN(CC)c1ccc(N2C(=O)C3CCCCC3C2=O)cc1[N+](=O)[O-] (stereo not drawn)	2.43
Cc1ccc(Oc2nc3ccccc3n3c(C)nnc23)c(C)c1	-3.58
CCN1C(=O)N/C(=C/c2ccc(C)o2)C1=O	4.76
CCOP(=S)(OCC)Oc1nc(Cl)c(Cl)cc1Cl	14.2
Cc1ccc(C2(CC(=O)O)CCOC(C)(C)C2)cc1 (stereo not drawn)	9.86
CC(C)(C)C(=O)Nc1c2c(nn1-c1cccc(Cl)c1)CS(=O)(=O)C2	-14.1
Cc1cc(O)c(-c2cc(C(=O)Nc3ccc(S(=O)(=O)N4CCOCC4)cc3)[nH]n2)cc1C	-5.54
Cc1ccc(-n2nc(C(N)=O)nc2-c2ccccc2)cc1	6.42
CCCCOC(=O)c1ccc(NC(=O)C2CCCO2)cc1 (stereo not drawn)	-6.66
O=C(NCCN1CCOCC1)c1cc(-c2ccccc2Cl)nc2ccccc12	-15
COC(=O)c1cc(CNC(=O)c2cccc(Cl)c2)ccc1OC	-23.9
COC(=O)c1cc(COc2ccc3c(c2)oc(=O)c2ccccc23)c(C)o1	-18.4
Cc1cccc(C(=O)Nc2nnc(S(=O)(=O)N3CCCCCC3)s2)c1	-2.86
CCSc1nc2sc3c(c2c2nnc(SCC(=O)NCc4ccco4)n12)CCCC3	-9.16
